# In the supplement of paper PMC8728848:
# The list shows a part of the results.
# Columns and labels:
# Assay in all cases: glycan array binding signal (z-score within array); higher = stronger binding
# Conditions in all cases: glycan notation: IUPAC condensed, linker removed
# GalNAc(b1-3)GalNAc = target: GalNAc(b1-3)GalNAc
# Outline: (§1)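 Glycan array data were curated from 3228 arrays in the Consortium for Functional Glycomics database and kept only where the protein sequence was available. Glycan names were converted to IUPAC-condensed notation, and columns mapping to the same glycan were averaged. The binding signal is a within-array Z-score, averaged across arrays of the same protein sequence at different concentrations or buffers and across linkers. Negative Z-scores can be read as non-binding.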
# GalNAc(b1-4)GlcNAc = target: GalNAc(b1-4)GlcNAc
# Outline: as §1
# Glc(a1-4)Glc = target: Glc(a1-4)Glc
# Outline: as §1
# Glc(a1-6)Glc(a1-6)Glc = target: Glc(a1-6)Glc(a1-6)Glc
# Outline: as §1
# Glc(b1-4)Glc = target: Glc(b1-4)Glc
# Outline: as §1
# Glc(b1-6)Glc = target: Glc(b1-6)Glc
# Outline: as §1
# GlcA(b1-3)Gal = target: GlcA(b1-3)Gal
# Outline: as §1
# GlcA(b1-3)GlcNAc = target: GlcA(b1-3)GlcNAc
# Outline: as §1
# GlcA(b1-6)Gal = target: GlcA(b1-6)Gal
# Outline: as §1
# [1] = target: GlcNAc(a1-3)Gal(b1-4)GlcNAc
# Outline: as §1
# [2] = target: GlcNAc(a1-6)Gal(b1-4)GlcNAc
# Outline: as §1
# [3] = target: GlcNAc(b1-2)Gal(b1-3)GalNAc
# Outline: as §1
# [4] = target: GlcNAc(b1-2)Man(a1-3)[GlcNAc(b1-2)Man(a1-6)]Man(b1-4)GlcNAc(b1-4)GlcNAc
# Outline: as §1
# GlcNAc(b1-3)Gal = target: GlcNAc(b1-3)Gal
# Outline: as §1
# [5] = target: GlcNAc(b1-3)Gal(b1-3)GalNAc
# Outline: as §1
# GlcNAc(b1-3)Gal(b1-4)Glc = target: GlcNAc(b1-3)Gal(b1-4)Glc
# Outline: as §1
# [6] = target: GlcNAc(b1-3)Gal(b1-4)GlcNAc
# Outline: as §1
# [7] = target: GlcNAc(b1-3)Gal(b1-4)GlcNAc(b1-3)Gal(b1-4)GlcNAc
# Outline: as §1
# GlcNAc(b1-3)GalNAc = target: GlcNAc(b1-3)GalNAc
# Outline: as §1
# GlcNAc(b1-3)Man = target: GlcNAc(b1-3)Man
# Outline: as §1
# [8] = target: GlcNAc(b1-3)[GlcNAc(b1-4)][GlcNAc(b1-6)]GlcNAc
# Outline: as §1
# [9] = target: GlcNAc(b1-3)[GlcNAc(b1-6)]Gal(b1-4)GlcNAc
# Outline: as §1
# [10] = target: GlcNAc(b1-3)[GlcNAc(b1-6)]GalNAc
# Outline: as §1
# [11] = target: GlcNAc(b1-4)Gal(b1-4)GlcNAc
# Outline: as §1
# GlcNAc(b1-4)GlcNAc = target: GlcNAc(b1-4)GlcNAc
# Outline: as §1
# [12] = target: GlcNAc(b1-4)GlcNAc(b1-4)GlcNAc
# Outline: as §1
# [13] = target: GlcNAc(b1-4)GlcNAc(b1-4)GlcNAc(b1-4)GlcNAc(b1-4)GlcNAc
# Outline: as §1
# [14] = target: GlcNAc(b1-4)GlcNAc(b1-4)GlcNAc(b1-4)GlcNAc(b1-4)GlcNAc(b1-4)GlcNAc
# Outline: as §1
# [15] = target: GlcNAc(b1-4)[GlcNAc(b1-6)]GalNAc
# Outline: as §1
# [16] = target: GlcNAc(b1-6)Gal(b1-4)GlcNAc
# Outline: as §1
# GlcNAc(b1-6)GalNAc = target: GlcNAc(b1-6)GalNAc
# Outline: as §1
# GlcNAc3Prop(b1-4)GlcNAc = target: GlcNAc3Prop(b1-4)GlcNAc
# Outline: as §1
# Kdn(a2-3)Gal(b1-3)GlcNAc = target: Kdn(a2-3)Gal(b1-3)GlcNAc
# Outline: as §1
# Kdn(a2-3)Gal(b1-4)GlcNAc = target: Kdn(a2-3)Gal(b1-4)GlcNAc
# Outline: as §1
# [17] = target: Man(a1-2)Man(a1-2)Man(a1-3)Man
# Outline: as §1
# [18] = target: Man(a1-2)Man(a1-2)Man(a1-6)[Man(a1-3)]Man
# Outline: as §1
# Man(a1-2)Man(a1-3)Man = target: Man(a1-2)Man(a1-3)Man
# Outline: as §1
# [19] = target: Man(a1-2)Man(a1-3)[Man(a1-2)Man(a1-6)]Man
# Outline: as §1
# [20] = target: Man(a1-2)Man(a1-3)[Man(a1-2)Man(a1-6)]Man(a1-6)[Man(a1-2)Man(a1-2)Man(a1-3)]Man
# Outline: as §1
# [21] = target: Man(a1-2)Man(a1-3)[Man(a1-2)Man(a1-6)]Man(a1-6)[Man(a1-2)Man(a1-2)Man(a1-3)]Man(b1-4)GlcNAc(b1-4)GlcNAc
# Outline: as §1
# [22] = target: Man(a1-2)Man(a1-3)[Man(a1-6)]Man(a1-6)[Man(a1-2)Man(a1-3)]Man(b1-4)GlcNAc(b1-4)GlcNAc
# Outline: as §1
# [23] = target: Man(a1-2)Man(a1-6)[Man(a1-3)]Man(a1-6)[Man(a1-2)Man(a1-2)Man(a1-3)]Man
# Outline: as §1
# [24] = target: Man(a1-2)Man(a1-6)[Man(a1-3)]Man(a1-6)[Man(a1-2)Man(a1-2)Man(a1-3)]Man(b1-4)GlcNAc(b1-4)GlcNAc
# Outline: as §1
# Man(a1-3)[Man(a1-6)]Man = target: Man(a1-3)[Man(a1-6)]Man
# Outline: as §1
# [25] = target: Man(a1-3)[Man(a1-6)]Man(a1-6)[Man(a1-2)Man(a1-3)]Man(b1-4)GlcNAc(b1-4)GlcNAc
# Outline: as §1
binder,measurement,setting,value
"LSECtin (Homo sapiens), Q6UXB4 (protein) MEQESALRELRERVTQGLAEAGRGREDVRTELFRALEAVRLQNNSCEPCPTSWLSFEGSCYFFSVPKTTWAAAQDHCADASAHLVIVGGLDEQGFLTRNTRGRGYWLGLRAVRHLGKVQGYQWVDGVSLSFSHWNQGEPNDAWGRENCVMMLHTGLWNDAPCDSEKDGWICEKKAQLLTPPSALEPRPLQHVVSWGLLTSLAPGADCQRVFSSSSTAAESQKHLAQHSPVQPSAWALGPPCRPHPNSTHADPT",glycan array binding signal (z-score),GalNAc(b1-3)GalNAc,1.04
same,glycan array binding signal (z-score),GalNAc(b1-4)GlcNAc,-0.292
same,glycan array binding signal (z-score),Glc(a1-4)Glc,-0.288
same,glycan array binding signal (z-score),Glc(a1-6)Glc(a1-6)Glc,-0.277
same,glycan array binding signal (z-score),Glc(b1-4)Glc,-0.313
same,glycan array binding signal (z-score),Glc(b1-6)Glc,-0.307
same,glycan array binding signal (z-score),GlcA(b1-3)Gal,-0.307
same,glycan array binding signal (z-score),GlcA(b1-3)GlcNAc,-0.289
same,glycan array binding signal (z-score),GlcA(b1-6)Gal,-0.312
same,glycan array binding signal (z-score),[1],-0.19
same,glycan array binding signal (z-score),[2],-0.298
same,glycan array binding signal (z-score),[3],-0.275
same,glycan array binding signal (z-score),[4],5.09
same,glycan array binding signal (z-score),GlcNAc(b1-3)Gal,0.114
same,glycan array binding signal (z-score),[5],0.298
same,glycan array binding signal (z-score),GlcNAc(b1-3)Gal(b1-4)Glc,0.098
same,glycan array binding signal (z-score),[6],-0.118
same,glycan array binding signal (z-score),[7],-0.302
same,glycan array binding signal (z-score),GlcNAc(b1-3)GalNAc,0.65
same,glycan array binding signal (z-score),GlcNAc(b1-3)Man,0.057
same,glycan array binding signal (z-score),[8],0.623
same,glycan array binding signal (z-score),[9],-0.093
same,glycan array binding signal (z-score),[10],0.493
same,glycan array binding signal (z-score),[11],-0.305
same,glycan array binding signal (z-score),GlcNAc(b1-4)GlcNAc,-0.001
same,glycan array binding signal (z-score),[12],-0.221
same,glycan array binding signal (z-score),[13],-0.309
same,glycan array binding signal (z-score),[14],-0.304
same,glycan array binding signal (z-score),[15],0.471
same,glycan array binding signal (z-score),[16],-0.302
same,glycan array binding signal (z-score),GlcNAc(b1-6)GalNAc,-0.174
same,glycan array binding signal (z-score),GlcNAc3Prop(b1-4)GlcNAc,-0.053
same,glycan array binding signal (z-score),Kdn(a2-3)Gal(b1-3)GlcNAc,-0.302
same,glycan array binding signal (z-score),Kdn(a2-3)Gal(b1-4)GlcNAc,-0.308
same,glycan array binding signal (z-score),[17],0.057
same,glycan array binding signal (z-score),[18],0.129
same,glycan array binding signal (z-score),Man(a1-2)Man(a1-3)Man,0.15
same,glycan array binding signal (z-score),[19],0.406
same,glycan array binding signal (z-score),[20],1.22
same,glycan array binding signal (z-score),[21],-0.211
same,glycan array binding signal (z-score),[22],-0.041
same,glycan array binding signal (z-score),[23],0.579
same,glycan array binding signal (z-score),[24],-0.225
same,glycan array binding signal (z-score),Man(a1-3)[Man(a1-6)]Man,0.057
same,glycan array binding signal (z-score),[25],0.106
